Experimental data: the supplement of paper PMC9446081
Hit rate of the full screen: of about 39,000 compounds, about 220 (0.56%) showed activity. The list shows a part of the results.

Each compound was assayed on Escherichia coli K-12 BW25113 (assay: relative growth (OD600 normalised to plate interquartile mean) (fraction); higher = less growth inhibition, active = 0.2 or less). Details: 50 µM; LB; incubation time: overnight (16-24 h).
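Also: static incubation at 37 °C against the wild-type strain, values averaged over two biological replicates.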

Row | Compound | relative growth
1 | COC(=O)CN1C(=O)COc2ccc(C)cc21 | inactive: 0.983
2 | Cc1noc(C)c1S(=O)(=O)N(C)C[C@@H]1OCCCC[C@@H](C)Oc2ccc(NC(=O)Nc3ccccc3)cc2C(=O)N([C@H](C)CO)C[C@H]1C | inactive: 0.972
3 | COc1cccc(C(=O)Nc2ccc3c(c2)C(=O)N(C)[C@H]2CC[C@H](CC(=O)NCC(F)(F)F)O[C@@H]2CO3)c1 | inactive: 1.04
4 | C[C@@H]1CN([C@@H](C)CO)C(=O)c2cccc(NS(=O)(=O)c3ccc(Cl)cc3)c2O[C@H]1CN(C)Cc1ccc(Cl)c(Cl)c1 | inactive: 1.05
5 | C[C@H](CO)N1C[C@H](C)[C@H](CN(C)Cc2ccc(C(=O)Nc3ccccc3N)cc2)Oc2ccc(NS(C)(=O)=O)cc2CC1=O | inactive: 1
6 | C[C@@H]1CN([C@H](C)CO)C(=O)c2cc(NS(C)(=O)=O)ccc2O[C@H]1CN(C)Cc1ccc(C(=O)O)cc1 | inactive: 0.984
7 | CN1CCN(C(=O)C[C@@H]2CC[C@H]3[C@@H](COC[C@@H](O)CN3C(=O)Nc3cc(Cl)cc(Cl)c3)O2)CC1 | inactive: 0.927
8 | C[C@H](CO)N1C[C@H](C)[C@H](CN(C)C(=O)C2CCOCC2)Oc2cc(-c3ccc(F)cc3)ccc2S1(=O)=O | inactive: 0.897
9 | COc1ccc(NC(=O)N(C)C[C@H]2OCCCC[C@@H](C)Oc3ccc(NC(=O)C4CCCCC4)cc3C(=O)N([C@H](C)CO)C[C@H]2C)cc1 | inactive: 0.992
10 | COc1ccc(S(=O)(=O)Nc2ccc3c(c2)CC(=O)N([C@H](C)CO)C[C@@H](C)[C@H](CN(C)S(=O)(=O)c2ccc(F)cc2)O3)cc1 | inactive: 1.01
11 | CN(C)CCCNC(=O)C[C@@H]1CC[C@@H]2[C@H](COC[C@H](O)CN2S(=O)(=O)c2ccc(Cl)cc2)O1 | inactive: 1
12 | COCC#Cc1ccc([C@@H]2[C@@H](CO)N3C(=O)CN(C(=O)CN4CCOCC4)C[C@@H]23)cc1 | inactive: 1
13 | Cc1nc(COP(=O)(O)O)cc2c1[O][Mn][O]c1c(cc(COP(=O)(O)O)nc1C)CN(CC(=O)O)CCN(CC(=O)O)C2 | inactive: 0.971
14 | CCCNC(=O)N1C[C@@H](O)COC[C@H]2O[C@@H](CC(=O)NCCCN3CCOCC3)CC[C@@H]21 | inactive: 0.989
15 | C[C@H]1CCCCO[C@@H](CN(C)Cc2ccc3c(c2)OCO3)[C@@H](C)CN([C@@H](C)CO)C(=O)c2cc(NC(=O)CCC(F)(F)F)ccc2O1 | inactive: 0.995
16 | COCCCN1C(=O)[C@@]2(Cc3ccccc31)c1ccccc1C(=O)N(C1CCCCC1)[C@H]2c1ccc(CO)cc1 | inactive: 0.954
17 | C[C@H](CO)N1C[C@H](C)[C@@H](CN(C)C(=O)NC2CCCCC2)Oc2c(NC(=O)c3cnccn3)cccc2C1=O | inactive: 0.992
18 | Cc1ccnc(NC(=O)Cn2cnc3c2c(=O)n(C)c(=O)n3C)c1 | inactive: 0.996
19 | C[C@H](CO)N1C[C@H](C)[C@@H](CN(C)C(=O)CN2CCOCC2)Oc2cc(Br)ccc2S1(=O)=O | inactive: 0.882
20 | CCCN(C)C[C@H]1OCCCC[C@@H](C)Oc2ccc(NS(=O)(=O)c3cn(C)cn3)cc2C(=O)N([C@H](C)CO)C[C@@H]1C | inactive: 1.01

Row | Compound | relative growth
21 | O=C(NO)c1ccc(C(=O)N/N=C/[C@H](O)[C@@H](O)[C@H](O)CO)cc1 | inactive: 1.02
22 | CN1CCN(C(=O)C[C@H]2C[C@@H]3c4cc(NC(=O)c5ccc6c(c5)OCO6)ccc4O[C@@H]3[C@@H](CO)O2)CC1 | inactive: 0.997
23 | O=C(C[C@H]1CC[C@H]2[C@@H](COC[C@@H](O)CN2S(=O)(=O)c2ccccc2)O1)NCCN1CCCCC1 | inactive: 1.02
24 | CC(C)NC(=O)Nc1ccc2c(c1)CC(=O)N([C@H](C)CO)C[C@H](C)[C@H](CN(C)S(=O)(=O)c1ccc(Cl)cc1)O2 | inactive: 1.01
25 | C[C@@H]1CCCCO[C@@H](CN(C)Cc2ccccc2)[C@@H](C)CN([C@H](C)CO)C(=O)c2cc(NC(=O)Nc3ccc4c(c3)OCO4)ccc2O1 | inactive: 0.951
26 | CC(C)NC(=O)Nc1ccc2c(c1)CC(=O)N([C@@H](C)CO)C[C@@H](C)[C@@H](CN(C)S(=O)(=O)c1ccc(F)cc1)O2 | inactive: 0.982
27 | C[C@H]1CN([C@@H](C)CO)C(=O)Cc2cc(NC(=O)C3CCCCC3)ccc2O[C@H]1CN(C)S(=O)(=O)c1cn(C)cn1 | inactive: 1.01
28 | Cc1ccc(S(=O)(=O)N(C)C[C@@H]2Oc3c(NC(=O)C4CC4)cccc3C(=O)N([C@@H](C)CO)C[C@H]2C)cc1 | inactive: 0.99
29 | COC(=O)c1c2oc(c1C(=O)OC)C(=O)N[C@@H](Cc1ccccc1)Cn1cc(nn1)[C@H](Cc1ccccc1)NC(=O)N[C@@H](COC(=O)NCCCCCC(=O)NO)CC2 | inactive: 0.904
30 | CO[C@@H]1CN(C)C(=O)c2ccc(NC(=O)C3CC3)cc2OC[C@@H](C)N(C(=O)Cc2ccccn2)C[C@H]1C | inactive: 1
31 | COCC(=O)Nc1ccc2c(c1)OC[C@@H](C)N(Cc1ccccc1OC)C[C@@H](C)[C@H](OC)CN(C)C2=O | inactive: 1.01
32 | C=CCNC(=O)[C@H]1[C@@H]2C(=O)O[C@@H](c3ccccc3)[C@@H](c3ccccc3)N2[C@@H](c2ccccc2OCCO)[C@]12C(=O)N(C(=O)OCCOC)c1ccc(C#CC3(O)CCCCCC3)cc12 | inactive: 1.02
33 | C[C@@H]1CCCCO[C@H](CN(C)Cc2ccc(Cl)c(Cl)c2)[C@@H](C)CN([C@@H](C)CO)C(=O)c2cc(NC(=O)NC3CCCCC3)ccc2O1 | inactive: 0.995
34 | C[C@H](CO)N1C[C@H](C)[C@@H](CN(C)C(=O)Nc2ccc(C(F)(F)F)cc2)Oc2ccc(NC(=O)C3CCCCC3)cc2C1=O | inactive: 0.999
35 | C[C@@H]1CCCCO[C@H](CN(C)C(=O)Cc2ccccc2)[C@H](C)CN([C@@H](C)CO)C(=O)c2cc(NC(=O)Cc3ccccc3)ccc2O1 | inactive: 0.992
36 | C[C@@H]1CN([C@@H](C)CO)C(=O)c2cc(NC(=O)Cc3cn(C)c4ccccc34)ccc2O[C@@H]1CN(C)S(C)(=O)=O | inactive: 0.97
37 | CC(=O)Oc1cc(C(C)C)c(OCCN(C)C)cc1C.Cl | inactive: 0.951
38 | O=C(C[C@H]1CC[C@@H]2[C@H](COC[C@H](O)CN2S(=O)(=O)c2ccccc2)O1)NCc1ccc2c(c1)OCO2 | inactive: 0.971
39 | O=C(CCCCCCC(=O)N/N=C/[C@H](O)[C@@H](O)[C@@H](O)[C@H](O)CO)NO | inactive: 0.975
40 | COc1ccc(CN(C)C[C@@H]2OCCCC[C@@H](C)Oc3ccc(NS(=O)(=O)c4ccc(OC)cc4)cc3C(=O)N([C@H](C)CO)C[C@H]2C)cc1 | inactive: 1.02

Row | Compound | relative growth
41 | C[C@@H]1CN([C@@H](C)CO)C(=O)c2cc(NC(=O)NC3CCCCC3)ccc2O[C@@H](C)CCCCO[C@H]1CN(C)C(=O)CCC(F)(F)F | inactive: 0.999
42 | COc1oc(C(=O)NC2CCCCC2)c(-c2ccc(Cl)cc2)c1S(=O)(=O)c1ccc(C(F)(F)F)cc1[N+](=O)[O-] | inactive: 0.949
43 | C[C@H]1CN([C@@H](C)CO)C(=O)CCCn2cc(nn2)CO[C@H]1CN(C)C(=O)c1ccc(N2CCN(C)CC2)cc1 | inactive: 0.987
44 | C[C@@H]1CCCCO[C@@H](CN(C)C(=O)c2ccccc2)[C@@H](C)CN([C@@H](C)CO)C(=O)c2cc(NC(=O)Nc3ccc(C(F)(F)F)cc3)ccc2O1 | inactive: 1.01
45 | C[C@@H]1CN([C@H](C)CO)C(=O)c2cc(-c3cccc(C(=O)N(C)C)c3)cnc2O[C@H]1CN(C)S(=O)(=O)c1ccccc1 | inactive: 0.986
46 | C[C@@H]1CN([C@@H](C)CO)S(=O)(=O)c2ccc(C#Cc3ccncc3)cc2O[C@H]1CN(C)C(=O)c1ccncc1 | inactive: 0.99
47 | Cn1cc(Cl)c(C(=O)O)n1 | inactive: 1.03
48 | C[C@@H](NC(=O)C[C@H]1CC[C@@H](NC(=O)CN2CCOCC2)[C@H](CO)O1)c1ccccc1 | inactive: 1
49 | CC(C)NC(=O)Nc1ccc2c(c1)C(=O)N([C@@H](C)CO)C[C@H](C)[C@@H](CN(C)CC1CCCCC1)OCCCC[C@@H](C)O2 | inactive: 0.964
50 | COc1ccc(S(=O)(=O)Nc2ccc3c(c2)CC(=O)N([C@@H](C)CO)C[C@H](C)[C@@H](CN(C)S(C)(=O)=O)O3)cc1 | inactive: 0.976
51 | CN(Cc1[nH]nc2c1CCCC2)C(=O)Cc1c[nH]c(=O)n(C)c1=O | inactive: 1.02
52 | O=c1cc(-c2cccc(O)c2)oc2ccc(O)cc12 | inactive: 0.982
53 | C[C@H](CO)N1C[C@H](C)[C@H](CN(C)C(=O)Nc2cccc3ccccc23)Oc2ccc(NC(=O)CCC(F)(F)F)cc2CC1=O | inactive: 0.888
54 | Cc1noc(C)c1S(=O)(=O)Nc1ccc2c(c1)CC(=O)N([C@H](C)CO)C[C@H](C)[C@@H](CN(C)Cc1ccncc1)O2 | inactive: 0.916
55 | C[C@@H]1CCCCO[C@H](CN(C)C(=O)NC2CCCCC2)[C@@H](C)CN([C@H](C)CO)C(=O)c2cc(NC(=O)Nc3ccc(C(F)(F)F)cc3)ccc2O1 | inactive: 1.01
56 | CCCC#Cc1ccc2c(c1)O[C@@H](CN(C)Cc1ccc3c(c1)OCO3)[C@H](C)CN([C@@H](C)CO)S2(=O)=O | inactive: 1.04
57 | C[C@H](CO)N1C[C@H](C)[C@@H](CN(C)S(=O)(=O)c2ccccc2)OCCCC[C@H](C)Oc2ccc(NC(=O)Nc3cccc4ccccc34)cc2C1=O | inactive: 1.06
58 | C[C@H]1CN([C@@H](C)CO)C(=O)Cc2cc(NS(=O)(=O)c3cn(C)cn3)ccc2O[C@H]1CN(C)Cc1ccc(C(=O)O)cc1 | inactive: 0.968
59 | C[C@@H]1CCCCO[C@H](CN(C)CC2CCCCC2)[C@H](C)CN([C@H](C)CO)C(=O)c2cc(NS(=O)(=O)c3ccc(Cl)cc3)ccc2O1 | inactive: 0.965
